# Hit rate of the full screen: of about 310,000 compounds, about 2,200 (0.71%) showed an effect of 50% or more. Effects have a minus sign here. The list shows a part of the results.
# Biological target: human ether-à-go-go-related gene (hERG) potassium channel (human, UniProt Q12809)
# Assay: primary screen, population patch clamp on CHO cells stably expressing hERG
# human ether-à-go-go-related gene (hERG) potassium channel, sequence (Q12809 whole entry, looked up): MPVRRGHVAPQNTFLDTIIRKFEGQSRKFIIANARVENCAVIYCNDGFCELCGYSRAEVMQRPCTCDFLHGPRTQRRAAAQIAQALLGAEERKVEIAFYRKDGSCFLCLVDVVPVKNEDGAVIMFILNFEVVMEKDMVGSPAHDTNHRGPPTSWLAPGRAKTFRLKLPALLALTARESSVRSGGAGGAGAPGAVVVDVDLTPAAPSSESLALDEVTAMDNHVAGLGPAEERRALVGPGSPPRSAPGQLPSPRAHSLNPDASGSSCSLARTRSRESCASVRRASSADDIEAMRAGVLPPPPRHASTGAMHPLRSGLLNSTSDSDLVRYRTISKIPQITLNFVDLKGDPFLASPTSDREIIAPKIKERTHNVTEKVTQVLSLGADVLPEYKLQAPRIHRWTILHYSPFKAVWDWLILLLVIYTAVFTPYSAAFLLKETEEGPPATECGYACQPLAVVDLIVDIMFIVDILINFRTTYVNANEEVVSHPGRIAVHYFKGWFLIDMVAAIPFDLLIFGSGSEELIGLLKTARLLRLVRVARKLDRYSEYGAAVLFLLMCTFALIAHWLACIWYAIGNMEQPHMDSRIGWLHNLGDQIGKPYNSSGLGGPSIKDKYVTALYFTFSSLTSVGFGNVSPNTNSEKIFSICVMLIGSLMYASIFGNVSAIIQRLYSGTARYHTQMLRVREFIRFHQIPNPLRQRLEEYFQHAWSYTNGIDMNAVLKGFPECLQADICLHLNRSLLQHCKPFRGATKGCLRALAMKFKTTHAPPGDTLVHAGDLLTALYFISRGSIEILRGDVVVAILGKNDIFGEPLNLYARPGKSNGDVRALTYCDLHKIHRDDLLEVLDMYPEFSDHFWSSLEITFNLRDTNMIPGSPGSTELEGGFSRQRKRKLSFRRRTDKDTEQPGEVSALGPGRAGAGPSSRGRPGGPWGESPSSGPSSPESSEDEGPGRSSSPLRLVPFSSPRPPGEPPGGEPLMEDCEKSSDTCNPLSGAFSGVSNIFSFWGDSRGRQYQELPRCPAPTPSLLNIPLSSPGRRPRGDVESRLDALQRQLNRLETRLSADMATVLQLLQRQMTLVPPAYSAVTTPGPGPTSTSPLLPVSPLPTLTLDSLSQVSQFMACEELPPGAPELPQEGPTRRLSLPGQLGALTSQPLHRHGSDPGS
row,SMILES,"hERG current change (%, negative = inhibition) at 1uM [%]"
1,COc1cc(C(=O)NCC(C)C)c([N+](=O)[O-])cc1OC,13.4
2,CN(C)/C=C/C(=O)c1ccc(N2CCN(c3ncc(C(F)(F)F)cc3Cl)CC2)cc1,5.67
3,O=C1CCCC(=O)C1=C1SCCS1,4.92
4,CCOc1ccc(N(CC(=O)NCc2ccc(Cl)cc2)S(=O)(=O)c2c(C)noc2C)cc1,13.8
5,COCCn1c(N)c(N(Cc2ccccc2)C(=O)CN2C(=O)NC(C)(c3ccccc3)C2=O)c(=O)[nH]c1=O (stereo not shown),12.6
6,Cc1ccccc1OCC(=O)NNC(=S)NC(=O)c1ccccc1[N+](=O)[O-],5.05
7,Cc1ccccc1C(=O)NNC(=O)CSc1nc2ccccc2c(=O)[nH]1,5.7
8,COc1ccc(Cl)cc1N(CC(=O)N1CCCC1)S(=O)(=O)c1ccc(C)cc1,7.19
9,C=CCn1c(=N)n(CC(O)c2ccco2)c2ccccc21.Cl (stereo not shown),-10.2
10,O=C(CSc1nc2ccccc2n1Cc1ccccc1)N/N=C/c1ccccc1C(=O)O,13.6
11,O=C(NCCN1CCOCC1)c1ccc2c(c1)N(Cc1cccc(F)c1)C(=O)c1ccccc1S2,9.11
12,Clc1ncnc2scc(-c3ccccc3)c12,11
13,CC(=O)c1cccc(NS(=O)(=O)c2ccc(NC(=O)N3CCCCC3)cc2)c1,12.6
14,CCOC(=O)c1c(NC(=S)NNS(=O)(=O)c2ccc(Br)cc2)sc2c1CCCCC2,19.1
15,CCOc1ccc(NC(=O)Cc2nnc(SCC(=O)N3CCOCC3)n2C)cc1,7.73
16,CC1CCN(C(=O)CSc2nc3c(cnn3-c3ccccc3)c(=O)[nH]2)CC1,13.6
17,CCOc1cccc(NC(=O)/C(C#N)=C/c2cccnc2)c1,8.36
18,Cc1ccc(N2C(=O)CC(NNc3nc4ccccc4s3)C2=O)cc1C (stereo not shown),-9.34
19,COc1ccc(C(=O)Nc2cccnc2)cc1,21
20,CCOc1ccc(N2C(=O)C(Cl)=C(Nc3ccccc3O)C2=O)cc1,-0.345
21,C/C(=N\NC(=O)Cc1cccn1C)c1cccc2ccccc12,13.6
22,O=C(Nc1ccccc1Cl)OC1CN2CCC1CC2 (stereo not shown),0.204

row,SMILES,"hERG current change (%, negative = inhibition) at 1uM [%]"
1,CCOC(=O)C1=C(c2ccccc2)NC(N)=NC1c1ccc(OCc2ccc(Cl)cc2)c(OC)c1 (stereo not shown),-3.4
2,C(=N\Nc1ccccn1)/c1cccnc1,13.1
3,COc1ccc(CNC(=O)C/C(C)=N/NC(=O)c2ccccc2OC)cc1,10.8
4,Cn1c(=O)cc(SCC(=O)N2CCOCC2)c2ccc(Cl)cc21,13.8
5,COc1ccc(C(=O)COC(=O)c2ccccc2C(=O)N(C)c2ccccc2)c(OC)c1,17.1
6,CN(C)CCC(c1ccccc1)c1ccccn1.O=C(O)/C=C\C(=O)O (stereo not shown),3.66
7,COc1ccccc1C(=O)NC(=O)COC(=O)c1cnc(C)cn1,11.5
8,COc1cccc(NC(=O)C(=O)NCCC2CCCCN2S(=O)(=O)c2ccccc2)c1 (stereo not shown),14.3
9,COc1cc([N+](=O)[O-])ccc1NC(=O)/C=C/C(=O)O,12.5
10,CCOC(=O)c1cnc(NCc2ccccc2)nc1C,-7.53
11,CCOc1ccc(-c2nc(C#N)c(NCC(C)C)o2)cc1,7.14
12,CN(C)S(=O)(=O)c1ccc(Cl)c(NC(=O)COC(=O)[C@@H]2CCCN2C(=O)c2cccs2)c1,15.7
13,O=C(CCNC(=O)c1ccc([N+](=O)[O-])cc1)N/N=C/c1ccc(F)cc1,-7.96
14,CN(CC(=O)NCc1ccc(F)cc1)S(=O)(=O)c1ccc(Br)s1,0.262
15,O=C(CN1C(=O)NC2(CCCC2)C1=O)N1CCN(c2cccc(C(F)(F)F)c2)CC1,0.68
16,CC(=O)Nc1cccc(N/C(N)=N/c2nc(C)cc(C)n2)c1,6.08
17,COc1cccc(-c2nc(N)nc(SC)c2C#N)c1,3.76
18,O=C(C1CC(=O)N(c2ccc(F)cc2)C1)N1CCC(c2nc3ccccc3[nH]2)CC1 (stereo not shown),3.42
19,COc1ccc(NC(=O)c2ccccc2C)c(OC)c1,2.31
20,COCCNC(=O)c1cccc(OC2CCN(Cc3ccccc3OC(F)F)CC2)c1,18.2
21,O=C1/C(=C/c2cccs2)SC(=S)N1CC(=O)N1CCCCC1CCO (stereo not shown),20.1
22,COC(=O)C(C(=O)NCC1CCCO1)C1CCCCCC1 (stereo not shown),-13.5

row,SMILES,"hERG current change (%, negative = inhibition) at 1uM [%]"
1,O=S(=O)(c1ccccc1)C1Cc2ccccc2C1Cl (stereo not shown),17.2
2,CC1=C(C(=O)OC(C)C)C(c2ccc(N(C)C)cc2)C2=C(CC(C)(C)CC2=O)N1 (stereo not shown),3.16
3,CCS(=O)(=O)c1ccc(C(=O)NC)c(Cl)c1Cl,8.25
4,CCc1nnc(SCC(=O)Nc2nc(C)c(C(=O)N(C)C)s2)n1CC,4.49
5,Cc1cc(OCC(=O)N(C(C)C)C(C)C)ccc1Cl,8.19
6,CCCC(=O)n1nc(-c2ccccc2)nc1SC,-6.37
7,COCCNC(=O)c1cnn2c(C(F)(F)F)cc(-c3ccc(C)cc3)nc12,3.95
8,C=CCC(NCc1ccco1)c1ccc(OC)cc1OC (stereo not shown),7.78
9,Cc1noc(NS(=O)(=O)c2ccc(N/C=C/C(=O)c3ccc4c(c3)OCO4)cc2)c1C,4.88
10,Cc1ccccc1Cc1c(C)nc2c(C(=O)NCc3ccco3)cnn2c1C,-9.09
11,Cc1ccc(C(=O)N/N=C/c2ccoc2)cc1C,-0.552
12,CSCCCNC(=S)Nc1ccc(N2CCOCC2)cc1N1CCOCC1,1.46
13,CN(C)/C=N/c1c(C(=O)NCc2ccccc2)nnn1Cc1ccccc1,-18
14,CC(CCc1ccco1)NC(=O)CCc1nnc2ccc(NCc3ccccc3Cl)nn12 (stereo not shown),15.6
15,Cn1cccc1/C=N/NC(=O)c1cccc(OC(F)(F)C(F)F)c1,4.66
16,Cc1ccc(-n2ncc(N(C)C)c(Cl)c2=O)cc1,5.43
17,CN1CCN(c2ccc(NC(=O)c3ccc(C(F)(F)F)cc3)cn2)CC1,-6.78
18,Cc1cc(C(=O)C(=O)NC(C)C)c(C)n1-c1ccc([N+](=O)[O-])cc1,1.14
19,Cc1cccc(OCCNc2cc(N3CCN(C)CC3)ccc2[N+](=O)[O-])c1,13.7
20,CN(C(=O)C1CCCN1S(=O)(=O)c1ccc(Cl)cc1)c1ccccc1 (stereo not shown),0.858
21,O=C(Nc1ccccc1C(F)(F)F)c1cc(-c2cccc(O)c2)on1,-5.7
22,COc1cccc(CN(CC(=O)NCc2ccc(F)cc2)C(=O)c2ccco2)c1,7.98

row,SMILES,"hERG current change (%, negative = inhibition) at 1uM [%]"
1,COc1ccc(Cc2nc3ccc(C(=O)N(C)CC4COCCO4)cc3o2)cc1 (stereo not shown),5.2
2,COc1ccc(CCC(=O)NCC23CC4CC(CC(C4)C2)C3)cc1,5.84
3,O=C(N=C1c2ccccc2CN1c1cccc(Cl)c1)c1cccnc1,7.89
4,O=C(Cc1cccc2ccccc12)NC(NC(=S)Nc1ccccc1Cl)C(Cl)(Cl)Cl (stereo not shown),9.74
5,COC1=CC(=Cc2c(N)n3nc(CC(=O)N4CCOCC4)sc3nc2=O)C=C(OC)C1=O,14.3
6,CCN(CC(=O)Nc1c(F)cccc1F)C(=O)COc1ccc2c(c1)CCC2,6.95
7,CS(=O)(=O)N(CC(=O)N1CCN(c2ccccc2)CC1)C1CCCCC1,12.4
8,CN1C(=O)Cc2cc(S(=O)(=O)Nc3ccc(Cl)cc3)ccc21,14.7
9,COC(=O)[C@@H]1C[C@@]2(O)[C@H](O)[C@H](O)[C@H](O)C[C@H]2N1Cc1ccc(C)s1,12.3
10,CC1=CCC2C(=O)N(c3cccc(C(=O)NCc4ccccc4)c3)C(=O)C2C1 (stereo not shown),12.6
11,Cc1cccc(-n2c(-c3ccccc3)c[nH]c2=S)c1C,12.7
12,CCN(CC(=O)Nc1c(F)cccc1F)C(=O)c1ccc2c(c1)NC(=O)C(C)S2 (stereo not shown),3.83
13,O=C(NCCc1ccccc1)c1cc2ncc(Br)cn2n1,3.21
14,O=C(OCC(=O)N1CCCc2ccccc21)c1cc(S(=O)(=O)N2CCOCC2)ccc1Cl,11.9
15,O=C(CNCc1ccc(F)cc1)Nc1ccccc1-c1ccccc1,7.28
16,NS(=O)(=O)c1ccc(CNC(=O)/C=C/c2cccc([N+](=O)[O-])c2)cc1,5.68
17,Cc1ccc(-c2nonc2NC(=O)c2ccco2)cc1,0.834
18,Cn1cc(CN2CCCCC2c2ccccn2)c(-c2ccc3c(c2)OCCO3)n1 (stereo not shown),9
19,O=C(CSc1nc2ccccc2c(=O)n1Cc1ccccc1)NCc1ccco1,-6.09
20,Clc1ccc(-c2cnc3n2CCCCC3)cc1,-7.48
21,CCOc1ccc(C(=O)Nc2cccc3ncccc23)cc1Br,8.75
22,CCOc1ccc(Br)cc1S(=O)(=O)N1CCCN(C)CC1,10.1
